The values below come from the supplement of paper PMC9446081.

Molecules are shown by their SMILES. The whole screen tested about 39,000 compounds, of which about 220 (0.56%) showed activity. Some of the results follow.
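Note: static incubation at 37 °C against the wild-type strain, values averaged over two biological replicates.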

This assay relates to Escherichia coli K-12 BW25113. Kind of assay: relative growth (OD600 normalised to plate interquartile mean) (fraction); higher = less growth inhibition, active = 0.2 or less. The conditions noted are these: 50 µM; LB; incubation time: overnight (16-24 h).
For the compound `COc1ccc(S(=O)(=O)Nc2ccc3c(c2)CC(=O)N([C@@H](C)CO)C[C@@H](C)[C@H](CN(C)S(C)(=O)=O)O3)cc1`, the relative growth was inactive: 1.03.

Take `C[C@@H]1CCCCO[C@H](CN(C)C(=O)c2ccccc2)[C@@H](C)CN([C@H](C)CO)C(=O)c2cc(NS(=O)(=O)c3ccc(Cl)cc3)ccc2O1`: the relative growth was inactive: 0.986.

For the compound `O=[N+]([O-])c1ccc(O)c2ncccc12`, the relative growth was active: 0.0542.

For `C[C@@H]1CCCCO[C@H](CN(C)C(=O)CCC(F)(F)F)[C@@H](C)CN([C@H](C)CO)C(=O)c2cc(NC(=O)CCC(F)(F)F)ccc2O1`, the relative growth is inactive: 0.954.

In the case of `C[C@@H]1CN([C@@H](C)CO)C(=O)Cc2cc(NC(=O)CCC(F)(F)F)ccc2O[C@@H]1CN(C)C(=O)Nc1cccc2ccccc12`, the relative growth is inactive: 0.995.

On to `CCN(CC)CC(=O)Nc1c(C)cccc1C.Cl`, for which the relative growth is inactive: 1.03.

With `O=C(NCC1CC1)c1cc2c(c(-c3cccc(-c4ccccc4F)c3)n1)[C@@H](CCO)N(C(=O)CC1CC1)C2`, the relative growth is inactive: 1.04.

Turning to `C[C@H](CO)N1C[C@H](C)[C@H](CN(C)C(=O)Nc2ccc(C(F)(F)F)cc2)OCCCC[C@H](C)Oc2ccc(NC(=O)c3ccncc3)cc2C1=O`, the relative growth is inactive: 0.97.

Turning to `C[C@@H]1CCCCO[C@@H](CN(C)Cc2ccc(C(F)(F)F)cc2)[C@@H](C)CN([C@@H](C)CO)C(=O)c2cc(NC(=O)Nc3ccc4c(c3)OCO4)ccc2O1`, the relative growth was inactive: 0.994.

For `C[C@H](CO)N1C[C@H](C)[C@H](CN(C)C(=O)Nc2ccc(C(F)(F)F)cc2)Oc2c(NC(=O)Nc3ccc4c(c3)OCO4)cccc2C1=O`, the relative growth is inactive: 0.986.

With `Cc1cc(S(C)(=O)=O)c(S(C)(=O)=O)cc1C(=O)NC(=N)N`, the relative growth is inactive: 1.02.

Regarding `O=C(C[C@H]1CC[C@H]2[C@@H](COC[C@@H](O)CN2C(=O)c2ccccc2F)O1)N1CCN(c2ccccc2)CC1`, the relative growth is inactive: 0.969.

As to `C[C@H]1CN([C@@H](C)CO)C(=O)Cc2cc(NC(=O)Cc3ccccc3)ccc2O[C@H]1CN(C)S(=O)(=O)c1ccccc1`, the relative growth is inactive: 1.01.

As to `C[C@H](CO)N1C[C@H](C)[C@@H](CN(C)S(=O)(=O)c2ccccc2)Oc2ncc(C#CCN(C)C)cc2C1=O`, the relative growth was inactive: 1.

In the case of `Clc1ccc(/N=C/c2ccc(Br)o2)cc1Cl`, the relative growth was inactive: 1.01.

As to `COc1ccc2c3c([nH]c2c1)[C@H](CO)N(C[C@]13CCN(CC1)C(=O)c1ccncc1)C(=O)c1ccncc1`, the relative growth is inactive: 1.01.

On to `CC(C)NC(=O)Nc1ccc2c(c1)C(=O)N([C@@H](C)CO)C[C@H](C)[C@@H](CN(C)C(=O)C1CCCCC1)OCCCC[C@H](C)O2`, for which the relative growth was inactive: 1.01.

In the case of `C[C@H]1CN([C@@H](C)CO)C(=O)Cc2cc(NC(=O)Cc3cn(C)c4ccccc34)ccc2O[C@@H]1CN(C)Cc1ccc(Oc2ccccc2)cc1`, the relative growth is inactive: 1.02.

Take `CCCNC(=O)N1C[C@H](O)COC[C@H]2O[C@H](CC(=O)N3CCOCC3)CC[C@@H]21`: the relative growth is inactive: 1.

Consider `Cc1c(-c2ccc(-c3ccc(Cl)c(Cl)c3)o2)nc(-c2ccccc2)c2c1CO[Si]2(C(C)C)C(C)C`, for which the relative growth was inactive: 1.01.

For `C[C@H](CO)N1C[C@H](C)[C@@H](CN(C)Cc2ccc(C(F)(F)F)cc2)Oc2ccc(NC(=O)CCC(F)(F)F)cc2C1=O`, the relative growth was inactive: 1.01.

As for `C[C@@H]1CN([C@H](C)CO)C(=O)c2cc(NC(=O)Cc3ccccc3)ccc2O[C@@H]1CN(C)S(=O)(=O)c1ccccc1`, the relative growth is inactive: 0.988.

Consider `Cc1cc(C(=O)Nc2cccc3c2O[C@H](CN(C)S(=O)(=O)c2ccc(Cl)cc2)[C@H](C)CN([C@H](C)CO)C3=O)n(C)n1`, for which the relative growth was inactive: 1.

With `C[C@@H]1CN([C@H](C)CO)C(=O)Cc2cc(NC(=O)Nc3ccc(C(F)(F)F)cc3)ccc2O[C@@H]1CN(C)C(=O)Nc1ccc(F)cc1`, the relative growth is inactive: 1.01.

As to `COc1ccc(S(=O)(=O)N(C)C[C@@H]2Oc3c(NC(=O)Nc4cccc5ccccc45)cccc3C(=O)N([C@H](C)CO)C[C@@H]2C)cc1`, the relative growth is inactive: 1.06.

In the case of `Cc1noc(C)c1NC(=O)N(C)C[C@@H]1OCCCC[C@@H](C)Oc2ccc(NC(=O)Nc3ccc(C(F)(F)F)cc3)cc2C(=O)N([C@H](C)CO)C[C@@H]1C`, the relative growth is inactive: 1.

`Cc1ccc(S(=O)(=O)Nc2ccc3c(c2)C(=O)N([C@@H](C)CO)C[C@H](C)[C@@H](CN(C)Cc2ccc(Cl)c(Cl)c2)OCCCC[C@H](C)O3)cc1`: the relative growth was inactive: 0.971.

As for `CCCCC/C=C\C/C=C\C/C=C\CCCCC(=O)O`, the relative growth is inactive: 0.823.

As for `C[C@H](CO)N1C[C@H](C)[C@@H](CN(C)Cc2ccc(Oc3ccccc3)cc2)Oc2ccc(NC(=O)Cn3cnnn3)cc2CC1=O`, the relative growth is inactive: 0.977.

As for `C[C@@H]1CN([C@H](C)CO)C(=O)c2cc(NC(=O)Nc3ccc(C(F)(F)F)cc3)ccc2O[C@@H](C)CCCCO[C@@H]1CN(C)C(=O)NC1CCCCC1`, the relative growth was inactive: 1.04.

Turning to `Cc1noc(C)c1NC(=O)Nc1ccc2c(c1)C(=O)N([C@@H](C)CO)C[C@H](C)[C@H](CN(C)Cc1ccc(C(F)(F)F)cc1)OCCCC[C@@H](C)O2`, the relative growth is inactive: 0.981.

For the compound `C[C@H](CO)N1C[C@H](C)[C@H](CN(C)S(C)(=O)=O)Oc2ccc(NC(=O)Cc3cn(C)c4ccccc34)cc2C1=O`, the relative growth was inactive: 0.978.

Take `C=CC[C@@H](CC(=O)N(CCO)Cc1ccccc1)C(=O)N[C@H](COC(=O)[C@@H](CC=C)Cc1ccc(F)cc1)Cc1c[nH]c2ccccc12`: the relative growth was inactive: 1.03.

As for `Cc1ccc(S(=O)(=O)Nc2ccc3c(c2)C(=O)N([C@@H](C)CO)C[C@@H](C)[C@H](CN(C)C(=O)NC2CCCCC2)OCCCC[C@@H](C)O3)cc1`, the relative growth is inactive: 1.05.

Turning to `C[C@@H]1CN([C@@H](C)CO)C(=O)c2cc(NC(=O)Nc3ccc(F)cc3)ccc2O[C@@H](C)CCCCO[C@@H]1CN(C)C(=O)c1ccccc1`, the relative growth is inactive: 1.04.

As to `C[C@H](NC(=O)C[C@@H]1C=C[C@H](NC(=O)CN2CCOCC2)[C@H](CO)O1)c1ccccc1`, the relative growth was inactive: 1.02.

Turning to `CC(C)(C)C(=O)N[C@@H]1CC(=O)N(C2CC2)C1`, the relative growth was inactive: 1.
